Here are results for 87 compounds from paper PMC4336329 (PLoS ONE, 2015).

The structures appear in SMILES notation. Hit rate of the full screen: of about 310,000 compounds, about 14,000 (4.5%) showed an effect of 50% or more. The effect is printed as a negative number. Some of the results follow.
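Further: peak tail current of the secondary pulse compared with the same well before compound.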

Sequence of human ether-à-go-go-related gene (hERG) potassium channel (Q12809 whole entry, looked up): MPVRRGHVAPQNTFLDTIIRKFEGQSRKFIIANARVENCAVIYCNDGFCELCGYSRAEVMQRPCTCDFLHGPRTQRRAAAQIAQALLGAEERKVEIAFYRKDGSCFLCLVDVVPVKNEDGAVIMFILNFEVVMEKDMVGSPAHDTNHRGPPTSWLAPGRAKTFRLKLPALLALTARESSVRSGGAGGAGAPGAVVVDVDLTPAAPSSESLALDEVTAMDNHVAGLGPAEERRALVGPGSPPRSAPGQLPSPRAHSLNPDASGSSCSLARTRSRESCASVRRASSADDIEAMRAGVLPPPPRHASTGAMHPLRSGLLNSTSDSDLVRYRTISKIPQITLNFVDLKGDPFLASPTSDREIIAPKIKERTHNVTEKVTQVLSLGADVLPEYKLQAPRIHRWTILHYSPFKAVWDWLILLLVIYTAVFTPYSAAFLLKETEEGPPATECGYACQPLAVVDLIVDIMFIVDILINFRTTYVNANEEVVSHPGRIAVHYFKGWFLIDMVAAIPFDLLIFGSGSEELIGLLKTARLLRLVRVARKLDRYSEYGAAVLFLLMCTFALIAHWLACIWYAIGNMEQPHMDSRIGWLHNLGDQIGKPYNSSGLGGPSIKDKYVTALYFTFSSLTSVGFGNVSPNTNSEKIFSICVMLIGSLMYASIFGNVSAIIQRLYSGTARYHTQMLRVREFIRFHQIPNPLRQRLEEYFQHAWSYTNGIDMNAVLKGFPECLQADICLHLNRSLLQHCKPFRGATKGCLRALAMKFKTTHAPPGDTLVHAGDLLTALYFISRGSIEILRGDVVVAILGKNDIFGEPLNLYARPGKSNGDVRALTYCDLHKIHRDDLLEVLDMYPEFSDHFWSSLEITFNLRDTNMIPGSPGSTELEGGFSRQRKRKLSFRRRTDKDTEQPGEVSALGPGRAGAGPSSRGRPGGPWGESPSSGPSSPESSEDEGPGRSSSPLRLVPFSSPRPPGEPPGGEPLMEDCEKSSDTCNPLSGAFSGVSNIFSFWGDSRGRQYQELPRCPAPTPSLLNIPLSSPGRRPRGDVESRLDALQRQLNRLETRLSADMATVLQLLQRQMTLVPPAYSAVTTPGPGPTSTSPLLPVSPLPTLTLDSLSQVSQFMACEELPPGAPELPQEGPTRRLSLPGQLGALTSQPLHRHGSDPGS

This assay has as its target human ether-à-go-go-related gene (hERG) potassium channel (human, UniProt Q12809). The assay is described as follows: primary screen, population patch clamp on CHO cells stably expressing hERG.
As for `COc1ccc(CSCC(=O)N/N=C/c2ccc(OCC(=O)NCc3ccco3)cc2)cc1`, the “hERG current change (%, negative = inhibition) at 10uM” value is reported as -5.97%. For `Cc1ccc(C)c(N2C(=N)S/C(=C\c3ccc(-c4ccccc4C(=O)O)o3)C2=O)c1` the value was 24.1%; for `COc1ccccc1-n1cnnc1SC1CCOC1=O` (stereo not drawn), 4.66%.

In the case of `COc1ccc(Cl)cc1S(=O)(=O)NCc1cccs1`, the “hERG current change (%, negative = inhibition) at 10uM” value was -10.3%. On to `CCOC(=O)N1CCC(N(CCN(C)C)C(=S)Nc2cc(C)cc(C)c2)CC1`, for which the “hERG current change (%, negative = inhibition) at 10uM” value was -16.4%. `CSc1ccc(CNCCCSc2ncccn2)cc1.Cl`: the “hERG current change (%, negative = inhibition) at 10uM” value is -26%. Then `O=C(N/C=C/n1cnc2cc(C(F)(F)F)ccc21)c1ccccc1`, with 3.55%; and `Cc1ccc(C)c(-c2csc(N)c2C(=O)OC(C)C)c1`, with 11%. For `CCC(C(=O)Nc1ccc2c(c1)OCCO2)c1ccccc1` (stereo not drawn) the value was 13.4%; for `CCOC(=O)c1[nH]c(=O)[nH]c1CSCCO`, 10.8%; for `COc1cccc2sc(=NC(=O)CS(=O)(=O)c3ccc(F)cc3)n(C)c12`, -0.213%. As to `CCC(CC)N1CCN(C(=O)Cc2ccccc2)CC1.O=C(O)C(=O)O`, the “hERG current change (%, negative = inhibition) at 10uM” value is reported as 12.9%. As for `COc1ccc(NC(=O)COC(=O)C2=COCCO2)cc1OC`, the “hERG current change (%, negative = inhibition) at 10uM” value was found to be 14.2%. For `CCOc1ccc(CN(C(=O)c2ccccn2)c2ccc(OC)c(Cl)c2)cc1` the value was 6.53%; for `O=C(O)CCCCCCCCc1cn(Cc2ccc(C(=O)c3ccccc3)cc2)nn1`, 19.5%. In the case of `COC(=O)N1CN(C(=O)OC)CN(C(=O)OC)C1`, the “hERG current change (%, negative = inhibition) at 10uM” value amounted to 8.81%.

As to `COc1cc(CC(=O)OCC(=O)Nc2ncc(Cl)cc2Cl)cc(OC)c1OC`, the “hERG current change (%, negative = inhibition) at 10uM” value turned out to be 7.58%.

In the case of `COc1ccc(NC(=O)C23CCC(C2)C(C)(C)C3=O)cc1` (stereo not drawn), the “hERG current change (%, negative = inhibition) at 10uM” value is given as 9.09%.

Turning to `Cc1ccc[n+](-c2nc([O-])sc2/C=N/Nc2ccc([N+](=O)[O-])cc2)c1`, the “hERG current change (%, negative = inhibition) at 10uM” value worked out at 12.2%. As to `COc1cc(/C=C(\C#N)c2nc3ccccc3[nH]2)cc(OC)c1O`, the “hERG current change (%, negative = inhibition) at 10uM” value is on record as -13.7%. As for `CCc1ccccc1NC(=O)CN1CCN(CC(=O)Nc2cc(C)ccc2OC)CC1`, the “hERG current change (%, negative = inhibition) at 10uM” value is listed as -28.4%.

On to `COc1cccc(/C=C2\SC(=S)N(CCCC(=O)NC3=NCCS3)C2=O)c1`, for which the “hERG current change (%, negative = inhibition) at 10uM” value was found to be 19.2%. Then `COc1ccc(-n2nc3c(c2NC(C)=O)CS(=O)(=O)C3)cc1`, with 23.8%; and `CC(=O)Nc1ccc(NC(=O)C(C)OC(=O)CCCN=C2NS(=O)(=O)c3ccccc32)cc1` (stereo not drawn), with 8.81%. Turning to `COc1ccc(N(CN2C(=O)C3CC=CCC3C2=O)C(=O)c2ccco2)cc1` (stereo not drawn), the “hERG current change (%, negative = inhibition) at 10uM” value came to 8.35%.

As for `CCOC(=O)CSC1=N/C(=C\c2ccc(OC)c(OC)c2)C(=O)N1C`, the “hERG current change (%, negative = inhibition) at 10uM” value is -69.7%. For `O=C(O)c1cccc(NC(=S)NC(=O)c2cccc(OCc3ccccc3)c2)c1` the value was 28.7%. For `CN(c1ncc(C(F)(F)F)cc1Cl)n1cc(C(=O)O)c2ccccc2c1=O` the value was 4.8%.

As for `CN1CCN(C(=S)C(=O)NCc2ccccc2)CC1`, the “hERG current change (%, negative = inhibition) at 10uM” value is recorded as -2.07%. For `CC(=O)c1cccc(CN2CCCC(N3CCN(c4ccccc4F)CC3)C2)c1` (stereo not drawn) the value was -35.3%; for `CC(C)N1C(=O)CC(Nc2ccc(N3CCOCC3)cc2)C1=O` (stereo not drawn), 2.64%. For `CN(C)/C=C\C(=C/C(=O)C(F)(F)F)Nc1ccccc1Oc1ccccc1` the value was -24.4%; for `COc1ccccc1CCC(=O)NNC(=O)c1ccncc1`, 7.46%. Then `O=C(NCCCN1CCOCC1)C(=O)NCC1OCCN1S(=O)(=O)c1ccc(Br)cc1` (stereo not drawn), with -25.1%; and `Cc1cc(NC(=O)CCC(=O)N(CC(C)C)C(C(=O)NC(C)(C)C)c2ccccc2Cl)no1` (stereo not drawn), with 14.8%. For `CCOC(=O)C1CCN(C(=O)C(=O)c2cn(CC(=O)N3CCCCCC3)c3ccccc23)CC1`, the “hERG current change (%, negative = inhibition) at 10uM” value is reported as 16.1%.

Turning to `COc1cccc(/C=C2\SC(=S)N(NS(=O)(=O)c3ccccc3)C2=O)c1OC`, the “hERG current change (%, negative = inhibition) at 10uM” value is listed as -8.12%. Then `CC(C)(C)OC(=O)N1CCN(C(=O)Nc2ccc3c(c2)OCCO3)CC1`, with 10.5%. For `O=C(NCCCc1ccccc1)c1ccc([N+](=O)[O-])cc1Cl` the value was -36%.

In the case of `COCCSc1ncnc2c1oc1nc3c(cc12)COC(C)(C)C3`, the “hERG current change (%, negative = inhibition) at 10uM” value is given as -5.46%. For the compound `O=C(Nc1ccccc1)N1CCN2C(=O)c3ccccc3C12c1ccccc1` (stereo not drawn), the “hERG current change (%, negative = inhibition) at 10uM” value was -20.8%. As for `Cc1cc(O)c(C(C)C)cc1C1(c2cc(C(C)C)c(O)cc2C)OC(=O)c2ccccc21`, the “hERG current change (%, negative = inhibition) at 10uM” value is on record as 13.5%. For `CC1CCN(C(=O)Cn2ncc3c([nH]c4ccccc43)c2=O)CC1` the value was 0.195%; for `Cc1nn(C2CCS(=O)(=O)C2)c(Cl)c1/C=C/C(=O)OCC(=O)Nc1ccc2c(c1)OCO2` (stereo not drawn), 7.01%; for `CC(C)COC(=O)n1c(=O)oc2ccc(S(=O)(=O)N3CCCCC3)cc21`, -13.9%. With `Cc1cc(C)n2nc(C(=O)N/N=C/c3ccc(O)cc3)nc2n1`, the “hERG current change (%, negative = inhibition) at 10uM” value is on record as 21.4%. Then `Cc1ccc(-n2ncc3c(=O)n(CC(=O)NC4CCCCC4)cnc32)cc1`, with 20.4%; and `Cc1c(Cl)cccc1NC(=O)CCNC(=O)N1CC(=O)Nc2ccccc21`, with 18.3%; and `Cc1cccc(/C=N/NC(=O)CNc2cccc3ccccc23)n1`, with -4.25%. For `CC(=O)Cc1nsc(Nc2ccc3c(c2)OCCO3)n1` the value was 14.7%. Take `NC(=O)CCn1nc(-c2ccccc2)c2ccccc2c1=O`: the “hERG current change (%, negative = inhibition) at 10uM” value stood at 2.06%. As to `Cc1ccc(CSCC(=O)NCc2ccc(F)cc2)cc1`, the “hERG current change (%, negative = inhibition) at 10uM” value is listed as -17.6%. For `O=C(CSCc1nc2scc(-c3cccs3)c2c(=O)[nH]1)Nc1ccccn1` the value was 1.3%. As for `CCOc1ccc(C(=O)c2cnc3ccccc3c2N2CCN(CC)CC2)cc1`, the “hERG current change (%, negative = inhibition) at 10uM” value was -65.5%. Take `CCc1ccccc1NC(=O)CNC(=O)c1ccccc1OCc1c(C)noc1C`: the “hERG current change (%, negative = inhibition) at 10uM” value turned out to be 0.715%. For `COc1cc(C(=O)NCc2ccc(-c3nc4ccccc4o3)cc2)cc(OC)c1OC` the value was 16.8%; for `O=C(CSCc1c(F)cccc1Cl)NNC(=S)NC1CCCCC1`, 9.8%; for `Cc1ccc(C(=O)C(C)OC(=O)CCN2C(=O)C3C4C=CC(C5CC45)C3C2=O)cc1` (stereo not drawn), -30.6%. For `O=C(Nc1nnc(S(=O)(=O)N2CCCCCC2)s1)c1ccc(Cl)cc1` the value was 26.3%; for `Nc1ccccc1NC1=CC(=O)CC(c2ccco2)C1` (stereo not drawn), 10.4%. For `CCOc1cccc2cc(C(=O)N3CCc4ccccc4C3)c(=O)oc12` the value was -29.7%. On to `COCCN(C(=O)COC(=O)CCc1ccccc1OC)c1c(N)n(Cc2ccccc2)c(=O)[nH]c1=O`, for which the “hERG current change (%, negative = inhibition) at 10uM” value is given as 4.27%. Then `CCCc1cc(=O)oc2cc(C)cc(OCC(=O)NCc3cccnc3)c12`, with -44.4%; and `CC(C)=CCN1CCN(Cc2nc(-c3ccccc3)cs2)CC1CCO` (stereo not drawn), with -60.4%. Regarding `CCOc1ccc(NC(=O)CN2CCN(C(=O)C3CCCO3)CC2)cc1` (stereo not drawn), the “hERG current change (%, negative = inhibition) at 10uM” value is -32.6%. `CCN(CC)c1cc(C)c2cc(NC(=O)c3ccc(Br)o3)ccc2n1`: the “hERG current change (%, negative = inhibition) at 10uM” value is -76.1%.

As for `N#Cc1c2c(c(NCCN3CCOCC3)n3c1nc1ccccc13)CCCC2`, the “hERG current change (%, negative = inhibition) at 10uM” value is reported as -38.8%.

Take `CC(=O)c1ccc(NC(=O)CSc2ccc(-c3sc(C)nc3C)nn2)cc1`: the “hERG current change (%, negative = inhibition) at 10uM” value stood at 10.8%. With `COc1cc(OC)c(C2=NOC(C(=O)N3CCCc4ccccc43)C2)cc1Cl` (stereo not drawn), the “hERG current change (%, negative = inhibition) at 10uM” value is listed as -0.528%. For `COc1nccnc1NS(=O)(=O)c1ccc(N=Cc2c(C)[nH]n(-c3ccc(Cl)cc3)c2=O)cc1` the value was 29.7%; for `O=C(NCc1ccco1)C1CCN(S(=O)(=O)c2cccc3cccnc23)CC1`, -5.85%; for `COCCN(C(=O)CC1OC(=O)c2ccccc21)c1c(N)n(Cc2ccccc2)c(=O)[nH]c1=O` (stereo not drawn), 5.4%. For `CCOC(=O)C1CCN(C(=O)c2cc(COc3ccc(F)cc3F)on2)CC1` the value was -26.3%; for `Cc1cc(-c2ccccc2)nnc1NCCN1CCOCC1.Cl`, -22.5%. With `O=C(Cc1ccccc1)Nc1ccc(N2CCCCC2)cc1`, the “hERG current change (%, negative = inhibition) at 10uM” value is -6.93%. For `Cc1cc(=O)[nH]c(SCC(=O)Nc2ccc3c(c2)OCCO3)n1` the value was 8.83%; for `CCc1ccccc1NC(=O)C1CCCN(c2nccc(C)n2)C1` (stereo not drawn), 7.86%; for `O=C(O)c1ccc(NC2=C(N3CCOCC3)C(=O)c3ccccc3C2=O)cc1`, 7.29%. For `Cc1cc(O)cc(O[C@H]2OC(CO)[C@H](O)[C@@H](O)[C@H]2O)c1` (stereo partly drawn) the value was 9.81%; for `O=S(=O)(CCSc1ccc(C(F)(F)F)cn1)c1ccc(Cl)cc1`, 13%; for `COC(=O)C1=C(C)N(Cc2ccc(C)cc2)C(=O)C1`, 6.71%. For `CCc1ccc(CN(C)C(=O)C2CCC(=O)N(Cc3cccc(OC)c3)C2)nc1` (stereo not drawn) the value was -18.8%; for `CC1CN(C(=O)c2cccc(C(=O)N3CC(C)OC(C)C3)c2)CC(C)O1` (stereo not drawn), 19.1%; for `C/C(=C\C(=S)Nc1ccccc1)Nc1cccc2ccccc12`, 13.3%. As to `Cc1ccc(C(=O)NC(=S)NCC2CCCO2)cc1Br` (stereo not drawn), the “hERG current change (%, negative = inhibition) at 10uM” value is -5.22%. For `CC(=O)SCC(Cc1ccccc1)C(=O)NCC(=O)OCc1ccccc1` (stereo not drawn) the value was -12.9%; for `Cc1ccc(NC(=O)/C=C/c2ccc([N+](=O)[O-])s2)cc1`, 8.76%.
